Read counts are not given, so values of variants with three or more changes are uncertain.

First the molecules themselves.
B1: CPEB3 Ribozyme (parent)
chain: UAACAGGGGGCCACAGCAGAAGCGUUCACGUCGCAGCCCCUGUCAGAUUCUGGUGAAUCUGCGAAUUCUGCUGUAUAUCUC

This series covers variants of B1. The experiment in a line: self-cleavage, relative activity (ratio to wild type); higher = more cleavage; in vitro, sequencing. The method, boiled down:
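Relative activity was defined as the cleaved/total read fraction for a variant divided by the same fraction for the unmutated ribozyme. CPEB3 self-cleaving ribozyme libraries were made by rounds of error-prone PCR, barcoded, and transcribed in vitro with T7 RNA polymerase for 5 hours at 37°C, and cleavage ran through transcription plus a 15 min DNase I step before EDTA. Illumina sequencing of template-switched reverse transcripts gave the reads, and DNA sequencing mapped the barcodes. Averages come from three batches, using variants with at least 5 reads.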
Turning to A13U G73U U76C, the self-cleavage is 1.3.

For A13U C17A U31C U60A, the self-cleavage came out at 0.12. The result for A13U U25C U26C A28G G42U G63A reads 0.09; that for A13U G24A U69A A75U, 0.12. As for A13U C14U C38G C40A U58C A75U, the self-cleavage turned out to be 0.05.

For the variant A13U G33U A45C A56G U72C A75G, the self-cleavage was 0.08.

For the variant A13U C40U G73A, the self-cleavage stood at 0.5. Regarding A13U C23U U66C U72A, the self-cleavage amounted to 0.05. Take A13U A75G U78C: the self-cleavage came out at 1.18.

For the variant A13U U25C G33A U58G A77G U78C, the self-cleavage turned out to be 0.09.

With A13U G36A U49C U60A A77U, the self-cleavage came out at 0.06. In the case of A13U G33A A45U A56C A57G U67A, the self-cleavage stood at 0.14. With A13U U25C A35G U67C, the self-cleavage is 0.09. As for A13U G19C U26A A47U U51C A56G, the self-cleavage was 0.06. For the variant A13U U25C A35G A57U, the self-cleavage is 0.56.

As to A13U U25A U41C U43A G73A, the self-cleavage stood at 0.1. As for A13U G42C C44G A64U U72A U80C, the self-cleavage was found to be 0.14. The result for A13U U25C C62U U66C reads 0.13. Consider A13U G19U U72A, for which the self-cleavage came to 0.2. Regarding A13U U25A U51C U60A U66C, the self-cleavage is 0.31. With A13U G24A U51C A65G A77G, the self-cleavage is 0.07. With A13U C44U A47G the figure was 0.28; with A13U C14A A18U A56C U67C, 0.09; with A13U G19A G52U A57G, 0.3. The result for A13U G36U A45G U60A reads 0.04. As to A13U U25C A45G U51A U76A, the self-cleavage was 0.05. For A13U C39U U72A U76A, the self-cleavage came to 0.79. As to A13U G16C A28G A35G, the self-cleavage amounted to 0.14.

With A13U U25C A45G A56G, the self-cleavage stood at 0.24. As to A13U U25A U26G U49C U51C A64G, the self-cleavage worked out at 0.06. Take A13U C23G G30U U60A G63A A64G: the self-cleavage came out at 0.03. With A13U C14A A28G C59A C68A the figure was 0.08; with A13U U25C U26C U72C, 0.15; with A13U G19U U25C U54A, 0.07.

Consider A13U G22U A47G U51G, for which the self-cleavage was found to be 0.21. With A13U U25C A65G the figure was 0.14; with A13U C37A U69A, 0.2. As for A13U U25C U41C A47G, the self-cleavage came to 0.23. The result for A13U C23A C38G U51C A77G reads 0.04; that for A13U C37U U49C C59G, 0.05; that for A13U G24A U54C, 0.26. Consider A13U C29U U31C U49A U69A, for which the self-cleavage worked out at 0.23. The result for A13U G16A A35G U43A A56U U69C reads 0.16.

Regarding A13U C29U U41A U49C U58C U67A A75U, the self-cleavage was 0.05.

In the case of A13U C29G C37U A64G A77G, the self-cleavage came to 0.03.

In the case of A13U G22A U51C, the self-cleavage worked out at 0.15.

In the case of A13U G19U U78C, the self-cleavage turned out to be 0.13. The result for A13U G16C A20U G33A U60C U69A reads 0.04; that for A13U C29U U41C U74A, 1.01; that for A13U C23A C27A C39A, 0.13.

With A13U G52A G55C, the self-cleavage worked out at 1.11. With A13U C32G A65G the figure was 0.08; with A13U G30U U43C U54C U60A, 0.04; with A13U C14A A64G, 0.86. Regarding A13U G24A A56G U80C, the self-cleavage was determined as 0.23. A13U C38U U41G U60A U72G: the self-cleavage stood at 0.04. With A13U C37A U60C the figure was 0.15; with A13U C34U C50U U76C, 0.28. The result for A13U C40U U69A reads 0.3; that for A13U C29A U43A, 0.68. A13U C29U U69A U72A: the self-cleavage came to 0.08. Turning to A13U C14U A18C G61A U69A A77G, the self-cleavage turned out to be 0.17.

In the case of A13U U25A A35U U54C, the self-cleavage was 0.44. On to A13U C27A U54C U58C A77U, for which the self-cleavage came out at 0.05. With A13U G36C U41A U54A U67C the figure was 0.06; with A13U C37A U54C U69C, 0.1. The result for A13U U25C C44A G53U U54C U76C reads 0.06. Regarding A13U C17U U51C U60C C62U A75U, the self-cleavage came to 0.12. As for A13U G53U U54C, the self-cleavage came to 1.16. For A13U U25A U54A U60G U66C, the self-cleavage came to 0.14.

For the variant A13U C29A A57G A64G U66C A77U, the self-cleavage was found to be 0.12.

With A13U C29U U43C U48A A56G, the self-cleavage was 0.08. Take A13U C14A G33C U48C A57G U66A U74C: the self-cleavage turned out to be 0.04.

On to A13U G19A U51A, for which the self-cleavage was found to be 0.14. Take A13U C50U U69C: the self-cleavage came to 0.45. The result for A13U G24A G30A U51A reads 0.17.

For the variant A13U C44U U54A U80A, the self-cleavage was 0.41.

A13U U25A A56U: the self-cleavage came to 0.15. On to A13U C32U U72G, for which the self-cleavage was determined as 0.17.

A13U C14A U54C U72A A75G: the self-cleavage turned out to be 1.12. Turning to A13U U25C U31C U60C, the self-cleavage amounted to 0.36. With A13U G24A A28C C34A U48C the figure was 0.13.

A13U U25A U54C A65G: the self-cleavage worked out at 0.11. In the case of A13U C38U G61A U72C C79A, the self-cleavage was 0.87. The result for A13U C34U U43C U49C reads 0.11; that for A13U G30A C50A C62G, 0.12; that for A13U C23U C40A U49A G63C U78C, 0.06. The result for A13U C17G U25C U49A U78C reads 0.05; that for A13U G61A A64G U66C G73A U78C, 0.26. A13U C37G G70C C71U: the self-cleavage is 0.12. For A13U C17U A21G U25A U74G, the self-cleavage was found to be 0.46.

With A13U C40U G52A U67G U69A, the self-cleavage turned out to be 0.11. The result for A13U U25C C27A A65G reads 0.07. Regarding A13U G36A U67C U76C, the self-cleavage amounted to 0.06. With A13U U25A C37A U60C the figure was 0.08.

Regarding A13U U25C A47G, the self-cleavage stood at 0.27. Take A13U C29A A45G U60C U72C U80A: the self-cleavage was 0.3.

Take A13U G33A A45G: the self-cleavage worked out at 0.1. Consider A13U C39A A56G U72C, for which the self-cleavage was 0.17.

Regarding A13U C39A U49A U60C U66C U76A, the self-cleavage amounted to 0.06.

Regarding A13U C29U U41C U43C A56U U72C, the self-cleavage came out at 0.05.

As for A13U C27G U31A A35U U48A, the self-cleavage was determined as 0.05. With A13U U25A U26C A35U U54G, the self-cleavage was 0.13.

Regarding A13U C40A U43C U48A U69A A77G, the self-cleavage came to 0.06.

For the variant A13U G30A U31C, the self-cleavage is 0.2. In the case of A13U G33A A35G A45U A56U U66A, the self-cleavage was 0.05. Regarding A13U C14U U54C C62U, the self-cleavage is 0.08. With A13U C29U C40U, the self-cleavage was 0.21. The result for A13U G24C C38U U41A U48C U69C reads 0.05. For the variant A13U U25C G33A G36A U78A, the self-cleavage came out at 0.06. Take A13U G16A G33A U51C: the self-cleavage turned out to be 0.04. With A13U U25C C29U U54C U78C the figure was 0.08; with A13U C14G A21G A47G, 0.09.

Take A13U G22A U41G A47G: the self-cleavage is 0.09. The result for A13U C29U A35G C38A U51G A77U reads 0.54. As to A13U U25C U31C U43A A64G, the self-cleavage was found to be 0.12. Turning to A13U G24C C29U U31C U48C A57G, the self-cleavage came to 0.05. For A13U G19A G52U, the self-cleavage turned out to be 0.18. With A13U U25C C39U U69A the figure was 0.36.

As to A13U U25A A47U C50A, the self-cleavage was 0.08. For A13U C39U G73A U74C U80C, the self-cleavage turned out to be 1.24. With A13U U25C A45G the figure was 0.23; with A13U U25C A45U, 0.22; with A13U G16A C37A U48C, 0.07. As to A13U U25A U48C, the self-cleavage worked out at 0.13. On to A13U C17G U26C U48C, for which the self-cleavage came to 0.13.

For the variant A13U U25C G55C U72A, the self-cleavage was 0.09. A13U C40U U67A: the self-cleavage came to 0.46.

Turning to A13U C34U U49C, the self-cleavage was determined as 0.19. With A13U C14A U60C U67C the figure was 0.09; with A13U C27U C39U A56G, 0.1. With A13U U25C U31C U51A U58C A65G the figure was 0.06; with A13U G36C U78C, 0.07; with A13U C38U U48C, 0.25. Take A13U G33U U41A A64U: the self-cleavage amounted to 0.12. With A13U C23G A47G U58C U80C the figure was 0.04. With A13U G19A A56G U69A U72C the figure was 0.11; with A13U U25A U69A, 0.12. As for A13U U25A U69C, the self-cleavage is 0.16. Turning to A13U G16C A65U U69C U80C, the self-cleavage is 0.05. The result for A13U C14U A28G A75C reads 0.79. For the variant A13U G42C U58A U67A U76C, the self-cleavage worked out at 0.11. With A13U C40U A45G U60C the figure was 1.18. The result for A13U C40U A45G U60A reads 0.43; that for A13U C14U C50U U66C, 0.3. With A13U C37U U60C the figure was 0.28; with A13U C62U A65G, 0.32. With A13U G16A A20G, the self-cleavage stood at 0.42.

In the case of A13U U25A U49A A56U U58C A77G, the self-cleavage was 0.14. With A13U C23U G30C U41A C44A U60C the figure was 0.06.

In the case of A13U G22A G42A U43C U67G U78C, the self-cleavage is 0.14. Consider A13U C27U A28G U41C A57G U60C A75U, for which the self-cleavage came out at 0.05.

Take A13U G24U U49C: the self-cleavage came out at 0.15. For A13U G73A U78C, the self-cleavage was determined as 1.34. With A13U U25C C81A, the self-cleavage was 0.1. Consider A13U C23G A57U, for which the self-cleavage was 0.1. Regarding A13U C23G A57G, the self-cleavage was 0.16. On to A13U U25C A77U, for which the self-cleavage is 0.21.

As to A13U G30A U69A, the self-cleavage was 0. The result for A13U G24A A28G U69A reads 0.06; that for A13U C40U U51A U78A, 1.13.

Regarding A13U C44U U60A, the self-cleavage was 0.44. On to A13U U25C G46U A56G U58C, for which the self-cleavage turned out to be 0. Turning to A13U C39A A57G U80C, the self-cleavage is 0.21.

Consider A13U C38A U41A A56G, for which the self-cleavage stood at 0.16.

For A13U G24A C68G U72C, the self-cleavage worked out at 0.08. The result for A13U G16U U43C G52U A56G U80C reads 0.46.

Source of the values: the RNAGym collection of RNA variant scans (doi:10.1093/nar/gkz1192).
